Source: patent publication US20260013501A1, “HERBICIDAL DERIVATIVES” (SYNGENTA CROP PROTECTION AG, priority 2022, published 2026)
The name of at least one read-out is uncertain.

Tests used:
Assay type in all cases: in vivo
[1] = system: Amaranthus palmeri (AMAPA); assay: Post-emergence Test (Table B2), AMAPA; set-up: key: five-point scale: 5=81-100%, 4=61-80%, 3=41-60%, 2=21-40%, 1=0-20% damage; details: evaluated after 13 days
Method in brief: (§1)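 Score: % damage at 13 d on a 5-point scale (5=81-100%; 4=61-80%; 3=41-60%; 2=21-40%; 1=0-20%). Seeds sown in pots, sprayed with test article in acetone/water 50:50 + 0.5% Tween 20; rate in g/ha. Glasshouse 24/16 °C, 14 h light, 65% RH, watered twice daily.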

[2] = system: Amaranthus retoflexus (AMARE); assay: Pre-emergence Test (Table B1), AMARE; details: Rate 250 g/Ha, evaluated after 13 days
Setaria faberi (SETFA) [3] = assay: Post-emergence Test (Table B2), SETFA; set-up: key: five-point scale: 5=81-100%, 4=61-80%, 3=41-60%, 2=21-40%, 1=0-20% damage; details: evaluated after 13 days
Method in brief: as §1

[4] = system: Echinochloa crus-galli (ECHCG); assay: Post-emergence Test (Table B2), ECHCG; set-up: key: 5-point damage scale: 5=81-100%, 4=61-80%, 3=41-60%, 2=21-40%, 1=0-20%; details: evaluated after 13 days
Method in brief: as §1

[5] = system: Ipomoea hederacea (IPOHE); assay: Pre-emergence Test (Table B1), IPOHE; details: evaluated after 13 days
[6] = system: Amaranthus retoflexus (AMARE); assay: Post-emergence Test (Table B2), AMARE; set-up: key: five-point scale: 5=81-100%, 4=61-80%, 3=41-60%, 2=21-40%, 1=0-20% damage; details: evaluated after 13 days
Method in brief: as §1

[7] = system: Ipomoea hederacea (IPOHE); assay: Post-emergence Test (Table B2), IPOHE; set-up: key: five-point scale: 5=81-100%, 4=61-80%, 3=41-60%, 2=21-40%, 1=0-20% damage; details: evaluated after 13 days
Method in brief: as §1

Setaria faberi (SETFA) [8] = assay: Pre-emergence Test (Table B1), SETFA; details: evaluated after 13 days
[9] = system: Echinochloa crus-galli (ECHCG); assay: Pre-emergence Test (Table B1), ECHCG; details: evaluated after 13 days
Zea mays (ZEAMX) = assay: Post-emergence Test (Table B2), ZEAMX; set-up: key: 5-point damage scale: 5=81-100%, 4=61-80%, 3=41-60%, 2=21-40%, 1=0-20%; details: evaluated after 13 days
Method in brief: as §1

SMILES | percentage damage caused to the plant, AMAPA ([1]; rate 250 g/Ha) | Pre-emergence Test, percentage damage caused to the plant (five-point scale), AMARE [2] | percentage damage caused to the plant, SETFA (Setaria faberi (SETFA) [3]; rate 250 g/Ha) | percentage damage caused to the plant, ECHCG ([4]; rate 250 g/Ha) | Pre-emergence Test, percentage damage caused to the plant (five-point scale), IPOHE ([5]; Rate 250 g/Ha) | percentage damage caused to the plant, AMARE ([6]; rate 250 g/Ha) | percentage damage caused to the plant, IPOHE ([7]; rate 250 g/Ha) | Pre-emergence Test, percentage damage caused to the plant (five-point scale), SETFA (Setaria faberi (SETFA) [8]; Rate 250 g/Ha) | further results
CCn1c(Cc2cncc(F)c2)cc(=O)c(C(=O)O)c1-c1ccc(Cl)c(Cl)c1 [Compound 42, 2-(3,4-dichlorophenyl)-1-ethyl-6-[(5-fluoro-3-pyridyl)methyl]-4-oxo-pyridine-3-carboxylic acid] | 1 (1=0-20%) | 1 (1=0-20%) | 2 (2=21-40%) | 1 (1=0-20%) | 2 (2=21-40%) | 2 (2=21-40%) | 3 (3=41-60%) | 1 (1=0-20%) | 
CCn1c(Cc2cncc(Cl)n2)cc(=O)c(C(=O)O)c1-c1ccc(Cl)c(Cl)c1 [Compound 43, 6-[(6-chloropyrazin-2-yl)methyl]-2-(3,4-dichlorophenyl)-1-ethyl-4-oxo-pyridine-3-carboxylic acid] |  | 1 (1=0-20%) | 4 (4=61-80%) | 4 (4=61-80%) | 4 (4=61-80%) | 1 (1=0-20%) | 4 (4=61-80%) | 4 (4=61-80%) | Pre-emergence Test, percentage damage caused to the plant (five-point scale), ECHCG ([9]; Rate 250 g/Ha): 4 (4=61-80%); percentage damage caused to the plant, ZEAMX (Zea mays (ZEAMX); rate 250 g/Ha): 2 (2=21-40%)
CCn1c(Cc2ccc(C(F)F)nn2)cc(=O)c(C(=O)O)c1-c1ccc(Cl)c(Cl)c1 [Compound 108, 2-(3,4-dichlorophenyl)-6-[[6-(difluoromethyl)-pyridazin-3-yl]methyl]-1-ethyl-4-oxo-pyridine-3-carboxylic acid] |  |  |  |  |  |  |  |  | percentage damage caused to the plant, AMAPA ([1]; rate 1000 g/Ha): 3 (3=41-60%); percentage damage caused to the plant, SETFA (Setaria faberi (SETFA) [3]; rate 1000 g/Ha): 5 (5=81-100%); Pre-emergence Test, percentage damage caused to the plant (five-point scale), ECHCG ([9]; Rate 1000 g/Ha): 3 (3=41-60%); percentage damage caused to the plant, ECHCG ([4]; rate 1000 g/Ha): 4 (4=61-80%); Pre-emergence Test, percentage damage caused to the plant (five-point scale), IPOHE ([5]; Rate 1000 g/Ha): 3 (3=41-60%); percentage damage caused to the plant, AMARE ([6]; rate 1000 g/Ha): 3 (3=41-60%); percentage damage caused to the plant, IPOHE ([7]; rate 1000 g/Ha): 4 (4=61-80%); percentage damage caused to the plant, ZEAMX (Zea mays (ZEAMX); rate 1000 g/Ha): 3 (3=41-60%); Pre-emergence Test, percentage damage caused to the plant (five-point scale), SETFA (Setaria faberi (SETFA) [8]; Rate 1000 g/Ha): 5 (5=81-100%)
CCn1c(Cc2ccn(C(F)F)n2)cc(=O)c(C(=O)O)c1-c1ccc(Cl)c(Cl)c1 [Compound 124, 2-(3,4-dichlorophenyl)-6-[[1-(difluoromethyl)pyrazol-3-yl]methyl]-1-ethyl-4-oxo-pyridine-3-carboxylic acid] |  |  |  |  |  |  |  |  | percentage damage caused to the plant, AMAPA ([1]; rate 62.5 g/Ha): 1 (1=0-20%); percentage damage caused to the plant, SETFA (Setaria faberi (SETFA) [3]; rate 62.5 g/Ha): 4 (4=61-80%); Pre-emergence Test, percentage damage caused to the plant (five-point scale), ECHCG ([9]; Rate 62.5 g/Ha): 4 (4=61-80%); percentage damage caused to the plant, ECHCG ([4]; rate 62.5 g/Ha): 4 (4=61-80%); Pre-emergence Test, percentage damage caused to the plant (five-point scale), IPOHE ([5]; Rate 62.5 g/Ha): 2 (2=21-40%); percentage damage caused to the plant, AMARE ([6]; rate 62.5 g/Ha): 2 (2=21-40%); percentage damage caused to the plant, IPOHE ([7]; rate 62.5 g/Ha): 4 (4=61-80%); percentage damage caused to the plant, ZEAMX (Zea mays (ZEAMX); rate 62.5 g/Ha): 4 (4=61-80%); Pre-emergence Test, percentage damage caused to the plant (five-point scale), SETFA (Setaria faberi (SETFA) [8]; Rate 62.5 g/Ha): 5 (5=81-100%)
CCn1c(Cc2cnc(Cl)cn2)cc(=O)c(C(=O)O)c1-c1ccc(Cl)c(Cl)c1 [Compound 143, 6-[(5-chloropyrazin-2-yl)methyl]-2-(3,4-dichlorophenyl)-1-ethyl-4-oxo-pyridine-3-carboxylic acid] | 2 (2=21-40%) | 1 (1=0-20%) | 3 (3=41-60%) | 1 (1=0-20%) | 3 (3=41-60%) | 3 (3=41-60%) | 3 (3=41-60%) | 1 (1=0-20%) | 
